Laboratory results taken from PubChem BioAssay AID652106 (National Center for Advancing Translational Sciences (NCATS), 2013).
Among all 370,000 compounds or so, about 500 (0.14%) were called active. Inconclusive means that the source gave no clear call. Such entries were picked first, then a sample of the others. Calls come from the whole dose curve; as a rule, active = well fitted activation curve with a large enough effect; inconclusive = small, poorly fitted or top-dose-only effect; inactive = no such curve, though single readings can be large or run the other way. Potencies of inconclusive entries are doubtful fits and often do not repeat.

assay: qHTS of alpha-syn Inhibitors; conditions: Yeast expressing alpha-synuclein, BacTiter-Glo, 24 h; Potency: growth rescue unless noted; growth rescue (activation): at 46.1 µM (top of the series) unless noted; note: nearly all actives have a fitted effect of over 65% in size; for growth rescue (activation): % of control where 0% means no effect
How it was run: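 Rescue of yeast growth: cells expressing toxic alpha-synuclein, induced in galactose at OD600 0.02, incubated with compound 24 h at 30 C. ATP luminescence quantified growth; inhibitors of toxicity appear as activators.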
Potency is the fitted concentration of half-maximal effect; tags give direction and shape of the fitted curve.

Growth rescue (activation), inactive:
O=c1/c(=C/c2ccco2)sc2n1CN(c1cccc(Br)c1)CN=2 1.75%, COc1ccc2oc(C(=O)N3CCN(S(=O)(=O)c4ccc(F)cc4)CC3)c(C)c2c1 1.95%, COc1cccc(C2C(C#N)=C(N)Oc3c2oc(CO)cc3=O)c1OC (stereo not drawn) 2.37%, CC1(C)Cc2nc3sc4c(N(CCO)CCO)ncnc4c3cc2CO1 -2.28%, N#Cc1ncc(-c2ccc3c(c2)OCCOCCOCCOCCOCCO3)nc1C#N 4.5%, O=C(COc1ccc(Br)cc1)N1CCOCC1 -4.02%, COc1ccc(C(O)c2ncc(-c3ccccc3C)[nH]2)cc1 (stereo not drawn) -3.67%, COc1cc(C2C(C(=O)c3ccc(C)o3)=C(O)C(=O)N2CCCn2ccnc2)cc(OC)c1OC (stereo not drawn) -3.8%, COc1cccc(CNc2ccccc2O)c1OCc1ccccc1F -0.351%, CC12CN3CC(C)(CN(C1)C3c1ccc([N+](=O)[O-])o1)C2=O (stereo not drawn) -1.4%, Cc1cn(C2OC(COC(=O)c3ccccc3)C(O)C2O)c(=O)[nH]c1=O (stereo not drawn) 0.187%, COc1ccc(CC(=O)NC(C)c2nnc(SCC(=O)Nc3cc(C)ccc3OC)n2C)cc1 (stereo not drawn) -5.02%, O=c1c(Cc2ccc(Cl)cc2)c(O)ccn1Cc1cccc(Cl)c1 -5.89%, COc1cc2nc(N3CCCN(C)CC3)nc(NC(C)C)c2cc1OC -1.61%, Cc1ccc(C2=NC3(CCCC3)NC2=S)cc1 23%, CC1CCCC(C)N1CC(O)Cn1c2ccccc2c2ccccc21 (stereo not drawn) 5.73%, O=C(CC1SC(=O)N(c2ccccc2)C1=O)Nc1ccccc1 (stereo not drawn) -3.84%, Cc1oc(-c2ccccc2F)nc1CS(=O)(=O)CC(=O)NC(C)CCc1ccccc1 (stereo not drawn) 5.3%, Nc1cc2c(cc1Cl)-c1ccc(Cl)cc1C2 -1.29%, NNC(=O)COc1ccc2oc3c(c2c1)CCCC3 -11.2%, COC(=O)N1C(=O)[C@](c2ccsc2)(C(C)C)N1C(=O)OC -4.68%, CCOc1ccccc1NC(=O)CSc1nccn1-c1cccc(C)c1 13.6%, O=C(O)C1C2C=CC(CC2)C1C(=O)O (stereo not drawn) 9.13%, O=C(Oc1ccc(/C=N/Nc2ccccc2)cc1)c1ccccc1 -4.19%, Cc1cc(SCc2cc(=O)n3ccsc3n2)nc2ccccc12 0.97%

Potency, active:
Oc1ccccc1C1C=C(c2ccc3c(c2)OCO3)NC(c2cccc(Cl)c2)N1 (stereo not drawn) 4.47 µM, Cc1ccccc1C(=O)NNC(=S)NC(=O)c1ccc(Cl)cc1Cl 1.58 µM, O=c1cnn([C@@H]2O[C@H](CO)[C@@H](O)[C@H]2O)c(=O)[nH]1 5.62 µM

Potency, inconclusive:
O=C(N/N=C/c1sc2ccccc2c1O)c1ccccc1 5.62 µM [activator, single point], COc1ccc(C2CC(=O)Oc3cc(O)ccc32)cc1 (stereo not drawn) 3.16 µM [activator, single point], O=C1[C@H]2[C@H](C=CC[C@H]2C(=O)N2CCN(c3ccccc3)CC2)CCN1Cc1ccc(Cl)c(Cl)c1 22.4 µM [activator, single point], COc1cc2c(ccc3cc(OC)c(OC)c(O)c32)cc1O 31.6 µM [activator, single point], CCN(CC)S(=O)(=O)c1ccc(NCC2COc3ccccc3O2)c([N+](=O)[O-])c1 (stereo not drawn) 0.501 µM [activator, partial curve, poor fit], COc1ccc(NS(=O)(=O)c2ccc3ccccc3c2)c2ncccc12 28.2 µM [activator, single point], COc1ccc(C(=O)/C=C/C(=O)N(Cc2ccc3c(c2)OCO3)C(C(=O)NC2CCCCC2)c2ccncc2)c(O)c1 (stereo not drawn) 35.5 µM [activator, single point], CC(C)CCNC(=O)NC(=O)COC(=O)CNC(=O)C1CCCCC1 31.6 µM [activator, single point], CCOc1ccccc1NC(=O)CSc1nnc(Cc2cccn2C)n1-c1ccc(F)cc1 5.62 µM [activator, single point], CC(C)COc1ccc(S(=O)(=O)NNC(=O)c2cc3ccccc3o2)cc1 20 µM [activator, single point], Cc1ccc(CSc2nnc(CNc3ccc(F)cc3)o2)cc1 17.8 µM [activator, single point], O/N=C(/CCc1ccccc1)C1(O)CCCCC1 35.5 µM [activator, single point], O=C(/C=C/c1ccc(C(F)(F)F)cc1)OC(C(=O)NC1CC1)c1ccccc1 (stereo not drawn) 31.6 µM [activator, single point], CCCc1nc(SCC(=O)Nc2cc(C)on2)c2c(=O)n(C)c(=O)n(C)c2n1 6.31 µM [activator, single point], Oc1c(C(Nc2ccccn2)c2cccnc2)cc(Cl)c2cccnc12 (stereo not drawn) 17.8 µM [activator, single point], O=C(Nc1ccccc1)OCc1cnc(Cl)s1 3.98 µM [activator, single point], Cc1cccc(C2c3[nH]c4ccccc4c3CCN2C(=O)c2cc(-c3cccn3C)n[nH]2)n1 (stereo not drawn) 20 µM [activator, single point], COC(=O)CNc1cc(S(=O)(=O)N2CCCCC2)ccc1Oc1ccc(C(=O)OC)cc1 17.8 µM [activator, partial curve], Cn1c(C(C#N)C(=O)c2ccco2)nc2ccccc21 (stereo not drawn) 8.91 µM [activator, partial curve], CC1(C(=O)NCc2ccccc2Br)CCN1C(=O)C1(c2ccc(Cl)cc2)CC1 (stereo not drawn) 22.4 µM [activator, single point], O=C(COc1ccc(Cl)cc1Cl)N/N=C/c1ccccn1 17.8 µM [activator, partial curve], COc1cc(S(=O)(=O)NC2CCCCC2)c(C)cc1C 3.16 µM [activator, single point], Cn1c(S(=O)(=O)Cc2ccc(Cl)cc2)nc2ccccc21 6.31 µM [activator, single point], N#Cc1ccc(OCC(=O)Nc2cc(S(=O)(=O)N3CCOCC3)ccc2N2CCOCC2)cc1 5.01 µM [activator, single point], O=C1C=C(c2cccc(Cl)c2O)C[C@@H](c2ccc3c(c2)OCO3)C1 25.1 µM [activator, single point], O=C(CN1C(=O)c2cccc([N+](=O)[O-])c2C1=O)NNC(=O)c1ccc(F)cc1 5.62 µM [activator, single point], C=CCn1c(=N)n(CC(O)COc2ccccc2OC)c2ccccc21 (stereo not drawn) 0.501 µM [activator, partial curve, poor fit], CN(C)CCOC(c1ccccc1)c1ccccc1 3.55 µM [activator, single point], Cc1cccc(NC(=O)C2(C)Cc3ccccc3C(=O)O2)c1 (stereo not drawn) 22.4 µM [activator, single point], COc1ccc(C2OC(CCc3ccccc3)CC3=C2C(=O)OC(C)(C)O3)cc1 (stereo not drawn) 15.8 µM [activator, single point], N#C/C(=C/C=C/c1ccccc1)C(=O)Nc1ccccc1 4.47 µM [activator, single point], CC1(C(=O)Nc2cnc3ccccc3c2)CCN1Cc1ccc(-c2ccccc2)o1 (stereo not drawn) 25.1 µM [activator, single point], COc1cc2ccnc(C=O)c2cc1OC 25.1 µM [activator, single point], O=C(c1ccccc1)N1N=C(c2ccccc2)CC1c1cccs1 (stereo not drawn) 35.5 µM [activator, single point], O=[N+]([O-])c1ccc2c(c1)C(=NO)c1cc(F)ccc1-2 12.6 µM [activator, single point], c1ccc(CCn2nnnc2C(c2cccnc2)N2CCN(c3ccccc3)CC2)cc1 (stereo not drawn) 12.6 µM [activator, partial curve], CC(=O)c1nc(N2CCN(S(=O)(=O)c3ccc(C)cc3)CC2)c2ccccc2n1 22.4 µM [activator, single point], Cc1cc(C)cc(N2CCCn3c2nc2c3c(=O)n(CC(=O)OCc3ccccc3)c(=O)n2C)c1 5.62 µM [activator, single point], CS(=O)(=O)N(CC(=O)NCCSC1CCCCC1)c1ccc2c(c1)OCO2 3.98 µM [activator, single point], COc1cccc(N=Nc2ccc(O)c3ncccc23)c1 5.62 µM [activator, single point], CN(C)c1oc(/C=C/c2cccs2)nc1S(=O)(=O)c1ccccc1 8.91 µM [activator, partial curve], COC(=O)c1ccc(CN2C(=O)c3ccccc3C2=O)o1 3.55 µM [activator, single point], Cc1cccc(NC(=O)CN(C)S(=O)(=O)c2ccc(-c3ccc(=O)[nH]n3)s2)c1C 3.55 µM [activator, single point], O=C1CC(=O)OC(c2ccc([N+](=O)[O-])cc2)O1 6.31 µM [activator, single point], NC(=O)CSc1nc2ccccc2n1Cc1ccccc1F 5.62 µM [activator, single point]
